{"source": "PubChem BioAssay AID662", "about": "(National Center for Advancing Translational Sciences (NCATS), 2007)", "note": "The campaign covered roughly 71,000 compounds. About 1,800 (2.5%) were called active. This list was built around the results that the source calls inconclusive (neither active nor inactive); the mix of calls is not that of the screen. Calls follow the shape of the dose curve; as a rule, active = well fitted activation curve with a large enough effect in the signal ratio, with a control signal flat (not every such curve was filed as active); inconclusive = small, poorly fitted or top-dose-only effect, or effect the other way, or a change in a side signal; inactive = flat fitted curve, though single readings scatter; the % refers to the signal ratio. A potency beside an inconclusive call is a rough fit, not a confirmed value. Potency is read from the fitted curve at half-maximal effect; tags tell the direction and shape of the fitted curve."}
{"assay": "Cell signaling CRE-BLA (Fsk stim); as to activity change, negative = inhibition: % of control where 0% means no effect", "settings": "CHO CRE-bla reporter (cAMP response element driving beta-lactamase), forskolin EC10, beta-lactamase ratio; activity change, negative = inhibition: at 38.2 µM (top of the series) unless noted", "summary_of_the_method": "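Forskolin analogue NKH 477 at EC10 stimulated CRE-driven beta-lactamase in CHO cells alongside compound dilution series. Beta-lactamase was measured with CCF4, excitation 405 nm, emission ratio 460/530 nm.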"}
{"smiles": "CCn1c(NC(=O)c2cccc(Cn3cc(Cl)cn3)c2)nc2ccccc21", "activity change, negative = inhibition": "inactive: 2.33%"}
{"smiles": "CCc1ccccc1N(CC)C(=O)c1cn(C)c(=O)c2cc(OC)c(OC)cc12", "Potency": "inconclusive: 3.16 µM [rising, single point]"}
{"smiles": "COc1ccc(C(=O)c2cn[nH]c2-c2cc(Cl)ccc2O)cc1", "activity change, negative = inhibition": "inconclusive: 13.3%"}
{"smiles": "COc1ccc(-c2c(C)n([O-])c(C)c(C)[n+]2=O)cc1OC", "activity change, negative = inhibition": "inactive: 2.93%"}
{"smiles": "Cc1cc(C)nc(N2CCCC(C(=O)Nc3cc(F)ccc3C)C2)n1", "note": "(stereo not given)", "Potency": "inconclusive: 1 µM [falling, single point]"}
{"smiles": "O=C(NCc1ccco1)c1cc2nc(-c3ccc4c(c3)OCO4)cc(C(F)(F)F)n2n1", "Potency": "inconclusive: 10 µM [rising, partial curve]"}
{"smiles": "COc1ccc(C(=O)Cn2c(=O)c(CCC(=O)O)nn3c4ccccc4nc23)cc1OC", "activity change, negative = inhibition": "inconclusive: -2.57%"}
{"smiles": "CCc1ccc2c(-c3cccc(Cl)c3)nc(=O)n(CC)c2n1", "Potency": "active: 0.794 µM"}
{"smiles": "O=C(CNS(=O)(=O)c1ccc(Br)s1)NCC1COc2ccccc2O1", "note": "(stereo not given)", "activity change, negative = inhibition": "inconclusive: -10.5%"}
{"smiles": "CCc1ccc2[nH]c(=O)c(CN(Cc3ccc4c(c3)OCO4)C(=O)c3ccco3)cc2c1", "Potency": "inconclusive: 12.6 µM [rising, single point]"}
{"smiles": "NC(=S)NCCC[C@@H](N)C(=O)O", "activity change, negative = inhibition": "inactive: -1.49%"}
{"smiles": "C=CCNc1nc(Nc2ccc(OC)cc2OC)nc(OCC)n1", "Potency": "active: 5.01 µM"}
{"smiles": "Cc1nc(SCc2cccc(F)c2)[nH]c(=O)c1C#N", "activity change, negative = inhibition": "inconclusive: -8.84%"}
{"smiles": "Oc1ccccc1-c1cc(C(F)(F)C(F)F)nc(-c2ccccc2)n1", "activity change, negative = inhibition": "inactive: 12.7%"}
{"smiles": "CCCC(=O)c1cc2cc(Cl)ccc2oc1=O", "activity change, negative = inhibition": "inconclusive: -12.7%"}
{"smiles": "CCSc1nc2c(c(=O)[nH]c(=O)n2C)n1CC(O)COc1ccccc1C", "note": "(stereo not given)", "Potency": "inconclusive: 12.6 µM [rising, partial curve]"}
{"smiles": "CCC(C)(C)n1nnnc1C(c1ccc(N(C)C)cc1)N1CCN(C2CCCCC2)CC1", "note": "(stereo not given)", "activity change, negative = inhibition": "inactive: 0.471%"}
{"smiles": "Cc1cc(C)c(NC(=O)C[C@H](CC(=O)O)c2cccc3ccccc23)c(C(=O)N2CCC3(CCCC3)CC2)c1", "activity change, negative = inhibition": "inconclusive: -9.46%"}
{"smiles": "CN(C)Cc1ccc(-c2cc3onc(-c4ccccc4)c3c(=O)n2C)cc1", "activity change, negative = inhibition": "inactive: -10.9% [at 7.6 µM]"}
{"smiles": "Cc1cc(C(=O)CN2C(=O)NC(C)(c3cccc(Br)c3)C2=O)c(C)n1Cc1ccco1", "note": "(stereo not given)", "Potency": "inconclusive: 2.51 µM [falling, single point]"}
{"smiles": "CC[C@H](CO)NCCN[C@@H](CC)CO", "activity change, negative = inhibition": "inactive: 0.917% [at 17.1 µM]"}
{"smiles": "CN(C)c1ncc2nc(-c3cccs3)c(=O)n(-c3ccccc3)c2n1", "Potency": "inconclusive: 0.316 µM [rising, full curve]"}
{"smiles": "COc1cc2cc(CN(Cc3nnnn3Cc3ccco3)C3CCCCC3)c(=O)[nH]c2cc1OC", "activity change, negative = inhibition": "inactive: 8.44%"}
{"smiles": "COC(=O)c1ccc(CSc2nnc(NCc3ccccc3)s2)o1", "Potency": "inconclusive: 3.16 µM [falling, single point]"}
{"smiles": "O=C(CSc1nc2ccccc2[nH]1)NCc1ccco1", "activity change, negative = inhibition": "inactive: -13%"}
{"smiles": "CC(Sc1nncn1C)C(=O)Nc1nnc(C(C)C)s1", "note": "(stereo not given)", "activity change, negative = inhibition": "inactive: 1.84%"}
{"smiles": "O=C(c1n[nH]c(=O)c2ccccc12)N1CCN(C2c3ccccc3-c3ccccc32)CC1", "activity change, negative = inhibition": "inconclusive: -15.1%"}
{"smiles": "O=C(c1cnn2c(C(F)(F)F)cc(-c3ccccc3)nc12)N1CCOCC1", "activity change, negative = inhibition": "inactive: 7.29%"}
{"smiles": "COc1ccc(-n2c(Cc3cccn3C)nnc2SCC(=O)Nc2ccc(C)cc2C)cc1", "activity change, negative = inhibition": "inconclusive: -11.7%"}
{"smiles": "CN(c1ccccc1)c1nc(N2CCCC2)nc(-n2ccnc2)n1", "Potency": "inconclusive: 10 µM [rising, partial curve]"}
{"smiles": "Cn1nc(-c2ccc(N3CCOCC3)c(NS(=O)(=O)c3ccccc3)c2)c2ccccc2c1=O", "Potency": "active: 2 µM"}
{"smiles": "CSc1ccc(NC(=O)[C@H]2CCCC[C@@H]2C(=O)O)cc1", "activity change, negative = inhibition": "inactive: -2.79% [at 7.6 µM]"}
{"smiles": "O=C(Nc1ncnc2c1ncn2C1OC(COC(=O)c2ccccc2)C(F)C1O)c1ccccc1", "note": "(stereo not given)", "activity change, negative = inhibition": "inconclusive: -0.488%"}
{"smiles": "CC(NC(=O)c1cccc(N2CCCC2=O)c1)c1ccc2c(c1)OCCO2", "note": "(stereo not given)", "activity change, negative = inhibition": "inconclusive: -3.53%"}
{"smiles": "CCc1ccc(CCC(=O)Nc2sc3c(c2C#N)CCCC3)o1", "Potency": "inconclusive: 7.94 µM [rising, single point]"}
{"smiles": "Cc1nc(SCn2nnc3ccccc3c2=O)c2c(C)c(C)sc2n1", "Potency": "inconclusive: 0.251 µM [rising, full curve]"}
{"smiles": "CC(C)C(=O)N(c1ccc2oc(=O)sc2c1)S(=O)(=O)c1cccs1", "Potency": "inconclusive: 3.98 µM [rising, single point]"}
{"smiles": "O=C(NC1CCCc2ccccc21)C1CCN(S(=O)(=O)c2cnc[nH]2)CC1", "note": "(stereo not given)", "activity change, negative = inhibition": "inconclusive: 3.64%"}
{"smiles": "O=C(c1ccc(C(=O)N2CCOCC2)nc1)N1CCOCC1", "Potency": "inconclusive: 12.6 µM [rising, single point]"}
{"smiles": "CCn1nnc(NC(=O)CSc2ccc(Cl)cc2)n1", "activity change, negative = inhibition": "inconclusive: 0.487%"}
{"smiles": "COc1ccc(-c2cc(C(=O)N(C)Cc3ccccc3)no2)cc1OC", "Potency": "inconclusive: 12.6 µM [rising, partial curve]"}
{"smiles": "Clc1ccccc1-c1nn2c(-c3ccncc3)nnc2s1", "activity change, negative = inhibition": "inactive: 1.15%"}
{"smiles": "O=C(CCC(=O)N1CCCc2ccccc21)N1CCN(S(=O)(=O)c2ccccc2)CC1", "Potency": "inconclusive: 3.16 µM [falling, single point]"}
{"smiles": "O=C(NCC1CCCO1)C1CCN(C(=O)c2ccc(Br)cc2)CC1", "note": "(stereo not given)", "activity change, negative = inhibition": "inactive: 3.59%"}
{"smiles": "CCCC(=O)Nc1cc(C)c(NC(=O)c2ccncc2)cn1", "activity change, negative = inhibition": "inactive: 3.57%"}
{"smiles": "Cc1ccc(S(=O)(=O)NC(=O)Nn2c(C)nnc2C)cc1", "activity change, negative = inhibition": "inactive: -0.95%"}
{"smiles": "COc1ccc2c(Cl)cc(NC(=S)Nc3ccccc3)nc2c1", "activity change, negative = inhibition": "inactive: 11.5% [at 7.6 µM]"}
{"smiles": "c1nc(N2CCNCC2)c2sc3nc(N4CCOCC4)c4c(c3c2n1)CCC4", "activity change, negative = inhibition": "inactive: 12.5%"}
{"smiles": "COc1ccc(OC)c(NC(=O)C2CCCN(S(=O)(=O)c3cccc4cccnc34)C2)c1", "note": "(stereo not given)", "activity change, negative = inhibition": "inactive: 3.96%"}
{"smiles": "Cc1ccc2nc(N3CCN(Cc4nnnn4Cc4ccccc4)CC3)c(C#N)cc2c1", "activity change, negative = inhibition": "inconclusive: 16.2%"}
{"smiles": "Cc1ccc(NC(=O)c2cccc(N(C)C)c2)cc1NC(=O)c1ccc(O)cc1", "activity change, negative = inhibition": "inconclusive: -18.4%"}
{"smiles": "CCOc1cccc2cc(C(=O)N3CCc4ccccc43)c(=O)oc12", "activity change, negative = inhibition": "inactive: 2.63%"}
{"smiles": "COC(=O)[C@@]1(Cc2ccc(F)cc2)[C@H]2c3cc(C(=O)N4CCCC4)n(Cc4cccc5ccccc45)c3C[C@H]2CN1C(=O)c1ccccc1", "activity change, negative = inhibition": "inactive: -5.85%"}
{"smiles": "CCOC(=O)c1[nH]c2ccc(F)cc2c1NC(=O)CN1CCN(C/C=C/c2ccccc2)CC1", "Potency": "inconclusive: 25.1 µM [rising, single point]"}
{"smiles": "CCC(C)Sc1nc2c(cnn2-c2ccccc2)c(=O)[nH]1", "note": "(stereo not given)", "activity change, negative = inhibition": "inactive: -3.21%"}
{"smiles": "O=C(NC1CC2CCC1C2)C1CCN(S(=O)(=O)c2ccc(-c3nn[nH]n3)cc2)CC1", "note": "(stereo not given)", "activity change, negative = inhibition": "inconclusive: -3.2%"}
{"smiles": "O=C1CC(c2nc3ccccc3[nH]2)CN1c1cccc(C(F)(F)F)c1", "note": "(stereo not given)", "Potency": "inconclusive: 12.6 µM [rising, partial curve]"}
{"smiles": "C[N+](C)(C)CCN(Cc1cccs1)c1ccccn1", "activity change, negative = inhibition": "inactive: 0.893% [at 7.6 µM]"}
{"smiles": "O=C(CN1CCC(c2nc3ccccc3s2)CC1)NCc1cccs1", "activity change, negative = inhibition": "inactive: -28.9%"}
{"smiles": "COc1cc(NC(=O)CSc2nnc3n2C(C)(C)Cc2ccccc2-3)cc(OC)c1", "Potency": "inconclusive: 10 µM [rising, single point]"}
{"smiles": "Nc1c2c(nc3ccccc13)CCCC2", "Potency": "inconclusive: 15.8 µM [rising, partial curve]"}
{"smiles": "Cc1ccc(N(CC(=O)NCc2ccco2)S(=O)(=O)c2ccccc2)cc1", "activity change, negative = inhibition": "inactive: -7.74%"}
{"smiles": "C[C@@H](C(=O)NCCc1c[nH]c2ccccc12)[C@@H]1C[C@@]1(C)[C@@H](NC(=O)OCc1ccccc1)c1ccccc1", "activity change, negative = inhibition": "inactive: -6.3%"}
{"smiles": "Cc1ccc2c(c1)c1c3n2CC(=C2C(=O)OC(C)(C)OC2=O)NC3CCC1", "note": "(stereo not given)", "activity change, negative = inhibition": "inactive: -10%"}
{"smiles": "C=CCn1c(-c2cc(OC)c(OC)c(OC)c2)n[nH]c1=S", "Potency": "inconclusive: 12.6 µM [rising, single point]"}
{"smiles": "CCOC(=O)C1CCCN(C(=O)c2cn(C)c3ccc(S(=O)(=O)N4CCCC4)cc3c2=O)C1", "note": "(stereo not given)", "Potency": "inconclusive: 1.58 µM [rising, full curve]"}
{"smiles": "O=C(NCc1ccccn1)Nc1ccc(Cl)c(Cl)c1", "activity change, negative = inhibition": "inconclusive: -1.82%"}
{"smiles": "CCCNc1nc2c(c(=O)n(C)c(=O)n2C)n1Cc1cccc(C)c1", "Potency": "inconclusive: 25.1 µM [rising, single point]"}
{"smiles": "COc1ncc2nc(-c3ccc(Cl)cc3)c(=O)n(C)c2n1", "activity change, negative = inhibition": "inconclusive: 15.8%"}
{"smiles": "O=C1OC(Nc2ccc3c(c2)OCO3)c2ccccc21", "note": "(stereo not given)", "activity change, negative = inhibition": "inconclusive: -24.9%"}
{"smiles": "CN(C)C(=O)c1ccc(-c2ccc3ncnc(N(C)Cc4ccco4)c3c2)cc1", "Potency": "inconclusive: 12.6 µM [rising, single point]"}
{"smiles": "CCCCCn1c(=NC(=O)c2ccco2)c(C(=O)OCC)cc2c(=O)n3ccccc3nc21", "Potency": "active: 10 µM"}
{"smiles": "COc1ccc(Cn2c(C3CC3)nc3ccc(NC(=O)C4CC4)cc3c2=O)cc1", "Potency": "inconclusive: 25.1 µM [rising, single point]"}
{"smiles": "Cc1ccc(NC(=O)N2CCCC2C(=O)NCCC2=CCCCC2)cc1", "note": "(stereo not given)", "activity change, negative = inhibition": "inconclusive: -5.01%"}
{"smiles": "CN(C)c1cccc2c(S(=O)(=O)Nc3ccccn3)cccc12", "activity change, negative = inhibition": "inconclusive: 28%"}
{"smiles": "O=C(Nc1nnc(-c2ccco2)s1)C1CC1", "activity change, negative = inhibition": "inactive: 2.58%"}
{"smiles": "c1ccc(CSc2ncccn2)cc1", "activity change, negative = inhibition": "inconclusive: 6.7%"}
{"smiles": "COc1ccc(NC(=O)N2CC3(CCN(C(=O)c4csnn4)CC3)C2)cc1", "activity change, negative = inhibition": "inactive: -5.9%"}
{"smiles": "CCCn1nc(C(=O)OCC(=O)c2ccc3c(c2)NC(=O)CO3)c2ccccc2c1=O", "Potency": "inconclusive: 3.98 µM [falling, single point]"}
{"smiles": "C1=C(CN2CCOCC2)COc2c1cccc2OC[C@@H]1CNCCO1", "activity change, negative = inhibition": "inconclusive: -15.5%"}
